{"source": "the supplement of paper PMC3334620", "note": "The full ranking holds about 33,000 sequences; the median of “E-score (-0.5 to 0.5)” is about -0.011, and the highest 2% start at about 0.28. The list shows a part of the results.", "data": [{"molecular_target": "T1, Gcr1 (UniProt P07261)", "T1 sequence": "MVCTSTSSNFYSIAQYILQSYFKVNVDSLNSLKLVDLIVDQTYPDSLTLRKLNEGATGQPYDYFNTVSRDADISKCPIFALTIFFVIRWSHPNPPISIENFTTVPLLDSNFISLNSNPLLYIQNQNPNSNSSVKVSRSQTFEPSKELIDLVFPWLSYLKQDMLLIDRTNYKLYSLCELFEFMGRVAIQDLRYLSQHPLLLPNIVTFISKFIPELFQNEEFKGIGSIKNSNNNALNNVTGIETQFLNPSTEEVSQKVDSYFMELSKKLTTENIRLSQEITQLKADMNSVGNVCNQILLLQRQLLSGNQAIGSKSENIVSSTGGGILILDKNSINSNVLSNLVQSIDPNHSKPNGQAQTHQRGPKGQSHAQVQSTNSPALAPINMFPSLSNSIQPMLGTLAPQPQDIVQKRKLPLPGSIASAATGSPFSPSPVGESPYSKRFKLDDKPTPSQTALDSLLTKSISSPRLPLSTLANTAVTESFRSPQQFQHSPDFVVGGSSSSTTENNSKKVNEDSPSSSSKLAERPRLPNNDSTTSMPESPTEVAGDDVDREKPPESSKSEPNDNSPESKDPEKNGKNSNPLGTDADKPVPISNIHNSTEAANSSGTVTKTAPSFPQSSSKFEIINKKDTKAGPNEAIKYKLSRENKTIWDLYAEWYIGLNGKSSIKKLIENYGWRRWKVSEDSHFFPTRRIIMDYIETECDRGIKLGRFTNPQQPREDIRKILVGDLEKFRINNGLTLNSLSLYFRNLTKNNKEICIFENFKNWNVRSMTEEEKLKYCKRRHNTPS", "assay": "PBM E-score (8-mer binding enrichment) (E-score (-0.5 to 0.5)); higher = stronger / more preferred TF binding; most listed sequences are background and not binding sites", "details": "protein concentration: 100 nM; construct: GST-full length", "method_in_brief": "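Universal all-10-mer Agilent arrays, fresh or stripped once, were converted to double-stranded form by primer extension. GST-tagged yeast transcription factors from PURExpress in vitro transcription/translation, full-length or DNA-binding domain only, were applied at about 100-200 nM and detected with fluorescent anti-GST. After masliner normalisation, the Universal PBM Analysis Suite scored each ungapped eight-base word together with its reverse complement by E-score.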", "values": [{"sequence": "AGACAAGC", "PBM E-score": -0.117}, {"sequence": "CTTCGGAC", "PBM E-score": 0.0401}, {"sequence": "CGACCCAG", "PBM E-score": -0.169}, {"sequence": "CTTCTCAC", "PBM E-score": 0.00216}, {"sequence": "ACAACGAT", "PBM E-score": -0.134}, {"sequence": "CCCTCGGA", "PBM E-score": -0.221}, {"sequence": "CAGGCCGA", "PBM E-score": -0.0271}, {"sequence": "TCCGTAAA", "PBM E-score": 0.149}, {"sequence": "GTAGAGCA", "PBM E-score": -0.00374}, {"sequence": "ACACGACA", "PBM E-score": 0.0787}, {"sequence": "AGCCGGCG", "PBM E-score": -0.046}, {"sequence": "AGCGCTCG", "PBM E-score": -0.0704}, {"sequence": "ACTCTGGG", "PBM E-score": 0.16}, {"sequence": "CCTCGCAC", "PBM E-score": -0.083}, {"sequence": "TCTGACCA", "PBM E-score": -0.0141}, {"sequence": "CTTAACCC", "PBM E-score": -0.254}, {"sequence": "ACTTGCAG", "PBM E-score": -0.101}, {"sequence": "CGCCAGTC", "PBM E-score": -0.0131}, {"sequence": "ATAAGCTA", "PBM E-score": -0.078}, {"sequence": "CGTAATTC", "PBM E-score": 0.182}, {"sequence": "AACTTATG", "PBM E-score": 0.0783}, {"sequence": "ATTGCGTC", "PBM E-score": 0.0181}, {"sequence": "CACCCAAC", "PBM E-score": -0.0172}, {"sequence": "ACGACGAA", "PBM E-score": -0.12}, {"sequence": "ACTCTACT", "PBM E-score": 0.085}, {"sequence": "CCCCCAGA", "PBM E-score": 0.069}, {"sequence": "AGAGAAGA", "PBM E-score": 0.0866}, {"sequence": "TTGAAAAA", "PBM E-score": 0.0707}, {"sequence": "AAAGTCTT", "PBM E-score": -0.247}, {"sequence": "GAAATATC", "PBM E-score": -0.0882}, {"sequence": "AGTATGTC", "PBM E-score": 0.0226}, {"sequence": "GCCCAAAC", "PBM E-score": 0.111}, {"sequence": "AAGCTTGA", "PBM E-score": -0.0122}, {"sequence": "AAGTCAGA", "PBM E-score": -0.054}, {"sequence": "CACGGTCA", "PBM E-score": -0.172}, {"sequence": "ACCTACTC", "PBM E-score": -0.163}, {"sequence": "AGCCGGCC", "PBM E-score": -0.115}, {"sequence": "AAAGAGAA", "PBM E-score": 0.022}, {"sequence": "CCCTTTCC", "PBM E-score": -0.201}, {"sequence": "ACCAACAA", "PBM E-score": 0.027}, {"sequence": "CCTCAAGA", "PBM E-score": 0.0666}, {"sequence": "AGGTAACT", "PBM E-score": -0.0112}, {"sequence": "CCGTGATC", "PBM E-score": -0.0521}, {"sequence": "ACCTTGCA", "PBM E-score": -0.218}, {"sequence": "ACCAGCGG", "PBM E-score": 0.0166}, {"sequence": "ACTTTCCC", "PBM E-score": 0.00875}, {"sequence": "CTTGTTTA", "PBM E-score": 0.139}, {"sequence": "CAATCTTA", "PBM E-score": -0.0186}, {"sequence": "AACGCGGT", "PBM E-score": -0.107}, {"sequence": "GTATGCCA", "PBM E-score": -0.0655}, {"sequence": "ATGGCCAG", "PBM E-score": -0.12}, {"sequence": "AGCGAAAA", "PBM E-score": -0.148}, {"sequence": "TCAACGAA", "PBM E-score": 0.0235}, {"sequence": "GTCCACAA", "PBM E-score": 0.224}, {"sequence": "GCACACAC", "PBM E-score": -0.0257}, {"sequence": "ACCTAATG", "PBM E-score": 0.092}, {"sequence": "CCGCCTAC", "PBM E-score": 0.0338}, {"sequence": "CCAAGAAC", "PBM E-score": 0.00226}, {"sequence": "AGTTCAAT", "PBM E-score": 0.0306}, {"sequence": "AAGTAATA", "PBM E-score": 0.113}, {"sequence": "AGAGGATC", "PBM E-score": 0.024}, {"sequence": "TCCTGAGA", "PBM E-score": -0.0349}, {"sequence": "TAATCGTA", "PBM E-score": -0.0645}, {"sequence": "CCCAAAAA", "PBM E-score": 0.212}, {"sequence": "GGTCGAGA", "PBM E-score": -0.0372}, {"sequence": "ATGTCGAG", "PBM E-score": 0.0795}, {"sequence": "ACCACAAG", "PBM E-score": 0.0711}, {"sequence": "CGGTCCGC", "PBM E-score": -0.233}, {"sequence": "ACGATCCG", "PBM E-score": -0.0917}, {"sequence": "ATTGCGTG", "PBM E-score": 0.0862}, {"sequence": "ACTACAAA", "PBM E-score": -0.0263}, {"sequence": "TTAGCTAA", "PBM E-score": -0.0653}, {"sequence": "ATCGGATG", "PBM E-score": 0.105}, {"sequence": "GCGTACAC", "PBM E-score": -0.103}, {"sequence": "AACTGACT", "PBM E-score": -0.194}, {"sequence": "CACCTACA", "PBM E-score": 0.12}, {"sequence": "ATTAGATC", "PBM E-score": -0.0406}, {"sequence": "GCAAGCTA", "PBM E-score": -0.183}, {"sequence": "ATCTTTAC", "PBM E-score": 0.062}, {"sequence": "CAATACTG", "PBM E-score": 0.00946}, {"sequence": "GATTCTGA", "PBM E-score": 0.0548}, {"sequence": "CTTGCAGC", "PBM E-score": -0.0484}, {"sequence": "AACGTAAG", "PBM E-score": -0.143}, {"sequence": "ATTGCTCC", "PBM E-score": -0.155}, {"sequence": "CAGTCCGG", "PBM E-score": -0.0133}, {"sequence": "CACAACAC", "PBM E-score": -0.0602}]}]}
